Consider 82 compounds from PubChem BioAssay AID1645887 (National Center for Advancing Translational Sciences (NCATS), 2021).

Values joined by “and” are separate entries in the source; they are usually repeats but may differ in a detail not shown here. Equal values may be shown once. The campaign covered roughly 16,000 compounds. About 40 (0.2%) were called active. Roughly 1% stayed inconclusive and do not appear here. Calls follow the shape of the dose curve; as a rule, active = well fitted activation curve with a large enough effect; inconclusive = small, poorly fitted or top-dose-only effect, or another doubt; inactive = no such curve, though single readings can be large or run the other way. Some of the results follow.
% is scaled to controls: 0 for no effect and ±100 for the full control effect.

For this assay, the target named is Rap guanine nucleotide exchange factor 4 (Homo sapiens) (UniProt Q8WZA2). Nature of the assay: Validation qHTS for agonist of cAMP-regulated guanine nucleotide exchange factor 4 (EPAC2).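 Also: exchange makes BODIPY-GDP fluorescence drop when released from Rap1B; series mostly up to about 150 µM.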 Conditions: EPAC2 Rap1B BODIPY-GDP exchange, fluorescence; activation: active compounds read high. Put shortly: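 Fluorescent exchange assay: 100 nM EPAC2 with 250 nM RAP1B-BODIPY-GDP and 50 uM GDP; compound added, 5 min at room temperature, then read (ex 480/em 540 nm) every 5 min for 30 min. Normalized to 6.5 mM cAMP agonist control.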
Sequence of UniProt Q8WZA2 (Q8WZA2 whole entry, looked up): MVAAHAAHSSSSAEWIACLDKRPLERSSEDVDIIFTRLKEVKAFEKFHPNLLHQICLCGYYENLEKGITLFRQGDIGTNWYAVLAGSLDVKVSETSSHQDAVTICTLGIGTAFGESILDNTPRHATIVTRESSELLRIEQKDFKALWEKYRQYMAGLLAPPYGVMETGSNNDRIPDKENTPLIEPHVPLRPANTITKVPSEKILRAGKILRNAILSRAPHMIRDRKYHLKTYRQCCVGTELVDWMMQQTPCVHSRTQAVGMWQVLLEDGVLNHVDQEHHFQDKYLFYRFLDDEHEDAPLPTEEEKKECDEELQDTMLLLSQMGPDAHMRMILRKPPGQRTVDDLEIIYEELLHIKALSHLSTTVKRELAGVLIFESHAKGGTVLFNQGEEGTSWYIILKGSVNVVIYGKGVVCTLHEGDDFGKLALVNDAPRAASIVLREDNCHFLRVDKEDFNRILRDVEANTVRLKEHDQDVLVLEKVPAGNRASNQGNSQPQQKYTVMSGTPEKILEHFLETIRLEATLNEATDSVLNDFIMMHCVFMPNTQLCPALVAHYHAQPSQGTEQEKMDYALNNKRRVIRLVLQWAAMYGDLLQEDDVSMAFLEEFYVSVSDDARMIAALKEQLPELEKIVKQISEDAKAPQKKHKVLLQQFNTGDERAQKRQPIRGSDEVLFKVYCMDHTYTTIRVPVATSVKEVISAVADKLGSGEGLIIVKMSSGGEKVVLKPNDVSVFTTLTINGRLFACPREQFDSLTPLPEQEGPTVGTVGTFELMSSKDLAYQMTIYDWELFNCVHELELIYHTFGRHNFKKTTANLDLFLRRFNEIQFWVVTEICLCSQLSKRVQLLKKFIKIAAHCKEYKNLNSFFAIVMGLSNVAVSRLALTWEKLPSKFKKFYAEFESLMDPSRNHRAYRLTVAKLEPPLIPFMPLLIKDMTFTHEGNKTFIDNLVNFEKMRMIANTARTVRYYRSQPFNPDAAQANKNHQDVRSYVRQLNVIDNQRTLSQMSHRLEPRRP
Background: qHTS replaces the single test concentration by a dilution series.
With `O=C1CCN(Cc2ccccc2)CCN1[C@H](COc1ccccc1)Cc1ccccc1`, the activation was inactive: -36.9%.
With `CCC(=O)O[C@H]1[C@H](O[C@@H]2[C@@H](C)[C@H](O[C@H]3C[C@@](C)(OC)[C@@H](O)[C@H](C)O3)[C@@H](C)C(=O)O[C@H](CC)[C@@](C)(O)[C@H](O)[C@@H](C)C(=O)[C@H](C)C[C@@]2(C)O)O[C@H](C)C[C@@H]1N(C)C`, the activation was inactive: -57.1%.
Next, `O=C(NCCN1CCOCC1)c1cnn(-c2nccc(-c3cc4ccccc4o3)n2)c1C1CC1`: inactive: -3.65%; `NC(=O)c1ccc(-c2nc(-c3ccc4c(c3)OCO4)c(-c3ccccn3)[nH]2)cc1`: inactive: -5.42%; `COc1ccc(/C=C/C(=O)N2CCc3c(cnc(C)c3CNS(=O)(=O)c3cccs3)C2)cc1`: inactive: 11.1%.
Next, `Cc1ccc(S[C@@H](CCN2CC[C@H](C(C)(C)C)CCC2=O)c2ccccc2)cc1`: inactive: -6.01%.
Next, `Cc1nc2cncnc2n(Cc2ccccc2)c1=O`: inactive: -6.53%; `COCC(=O)N1CCC2(CCCN(C(=O)Nc3cccc(C#N)c3)C2)CC1`: inactive: -11.3%.
`CC(=O)Oc1cc(C(C)C)c(OCCN(C)C)cc1C`: the activation was inactive: -30.2% and inactive: -26.3%.
Next, `CCn1c(C)nc2cc(NS(=O)(=O)c3ccccc3)cc(C(=O)N3C[C@@H](C)O[C@@H](C)C3)c21`: inactive: -0.794%.
Next, `NS(=O)(=O)c1ccc(NC(=O)CCC(=O)O)cc1`: inactive: -0.157%; `O=C(O)c1cc(O)c2c(c1)[C@H]([C@H]1c3cc(C(=O)O)cc(O)c3C(=O)c3c(O[C@@H]4O[C@H](CO)[C@@H](O)[C@H](O)[C@H]4O)cccc31)c1cccc(O[C@@H]3O[C@H](CO)[C@@H](O)[C@H](O)[C@H]3O)c1C2=O`: inactive: -17.4%.
For the compound `COc1cccc(-c2ccc3ncnc(NC4CCNCC4)c3c2)c1`, the activation was inactive: -10.8%.
Consider `Cn1c(SCC2CCCO2)nnc1C1CCN(Cc2ccco2)CC1` (configuration not stated), for which the activation is inactive: -3.37%.
To `CC(=O)N1CCC[C@H]1C(=O)N1CCc2c(cnc(C)c2CNC(=O)/C=C/c2cccs2)C1` belongs inactive: -2.81%; to `COc1cccc(C(=O)NCC2Cc3cccc(-c4ncccn4)c3O2)c1OC` (configuration not stated), inactive: -16%; to `CC[N+](C)(CC)CC(=O)Nc1c(C)cccc1C`, inactive: -10.2%.
For the compound `Cc1cccc(C)c1NC(=O)NC1=CCCN1C`, the activation was inactive: -7.65%.
To `CC(C)CN1CCC2(CC1)CCN(S(=O)(=O)c1ccccc1)CC2` belongs inactive: -8.17%; to `CC(c1cc2ccccc2s1)N(O)C(N)=O` (configuration not stated), inactive: 5.47%.
Next, `COc1ccccc1CN1CCC2(CC1)CCN(C(=O)c1cc(C(F)(F)F)cc(C(F)(F)F)c1)CC2`: inactive: -25.7%; `COc1ccc(-n2c(=O)cnc3cnc(OC)nc32)cc1`: inactive: -8.13%.
Next, `N#CCCn1c(=O)c(-c2cc(F)cc(F)c2)nc2cnc(OCc3ccccc3)nc21`: inactive: -11.8%; `COc1ccc(-c2nc3cnc(N(C)C)nc3n(C[C@H]3CCCO3)c2=O)cc1`: inactive: 0.561%.
As to `Nc1ccn(C[C@@H](CO)OCP(=O)(O)O)c(=O)n1`, the activation is inactive: -6.59%.
Next, `COc1cc(O)c(C(C)=O)c(OC)c1`: inactive: -10.6%; `O=C(c1cnccn1)N1CCC2(CCCN(c3ccccc3)C2)CC1`: inactive: 1.28%; `Cc1ccccc1N=C1Nc2ccccc2N[C@]12C[C@H]1CCCC(=O)N3CC[C@@H](C2)[C@@H]13`: inactive: -3.8%.
Next, `CC[C@@H]1CN2CCc3cc(OC)c(OC)cc3[C@@H]2C[C@@H]1C[C@H]1NCCc2cc(OC)c(OC)cc21`: inactive: -4.51%; `CN1CCCC(CN2c3ccccc3Sc3ccccc32)C1` (configuration not stated): inactive: -8.13%.
Take `COc1ccccc1CN1Cc2cccc3c2[C@@H](CC1=O)[C@H](O)[C@H](O)C3`: the activation is inactive: -23%.
Next, `O=C1c2ccccc2C(=O)c2c(NCCc3ccc(O)cc3)ccc(NCCc3ccc(O)cc3)c21`: inactive: 5.93%; `COc1cc2c(cc1OC)C1C(=O)c3ccc4c(c3OC1CO2)C=CC(C)(C)O4` (configuration not stated): inactive: -2.97%.
For the compound `CCCS(=O)(=O)NCc1c(C)ncc2c1CCN(C(=O)c1cccc(Cl)c1F)C2`, the activation was inactive: -0.408%.
Consider `CN(C)C1CCC(CC2CCc3ccccc32)CC1` (configuration not stated), for which the activation is inactive: -13.8%.
To `N#Cc1ccc(CN2CC[C@@]3(CCCN(C(=O)c4cnccn4)C3)C2)cc1` belongs inactive: -8.6%; to `N#CCCn1c(=O)c(-c2cc(F)cc(F)c2)nc2cnc(N3CCOCC3)nc21`, inactive: -0.196%.
In the case of `C=CC(COCc1ccccc1)N([C@@H](Cc1ccccc1)C(=O)OC)S(=O)(=O)c1ccccc1Br` (some centres not stated), the activation is inactive: -15.9%.
On to `O=c1c(-c2ccc(F)cc2)nc2cnc(N3CCNCC3)nc2n1Cc1cccs1`, for which the activation is inactive: 11.6%.
To `O=C1CCN(Cc2ccc([N+](=O)[O-])cc2)CCN1CCO` belongs inactive: -10.8%; to `O=C(NC1CCCCC1)[C@@H]1CC=C[C@@H]2CCN(C3CCCCC3)C(=O)[C@@H]21`, inactive: 1.62%.
To `COc1ccc(CN2CCC(=O)N([C@H](CO)c3ccccc3)CC2)cc1OC` belongs inactive: -3.29%; to `CN(C)CCCOc1nn(Cc2ccccc2)c2ccccc12`, inactive: -10.4%.
Take `CCCN1CCC(=O)N(CCC#N)CC1`: the activation was inactive: -16.2%.
Turning to `O=C1c2c(O)cc(O)cc2OC(c2ccc(O)c(O)c2)C1O` (configuration not stated), the activation was inactive: -3.13% and inactive: -55.1%.
As for `CCc1ccc2c(c1)N(CC(C)CN(C)C)c1ccccc1S2` (configuration not stated), the activation was inactive: -8.78%.
Next, `CC1CN(CCC(=O)NCc2ccc3ncccc3c2)Cc2cc(Cl)ccc2O1` (configuration not stated): inactive: 2.44%; `CC(C)NC[C@@H](O)COc1cccc2[nH]ccc12`: inactive: 0.895%.
Next, `CCN1\C(=C/C=C/C=C/c2sc3ccccc3[n+]2CC)Sc2ccccc21`: inactive: -24.7% and inactive: -11%; `CNc1ccnc(-c2ccccc2CN(C)C)n1`: inactive: 4.85%.
Next, `O=C(O)COc1cccc(-c2ocnc2-c2nc(-c3ccccc3)c(-c3ccccc3)o2)c1`: inactive: -11.2%; `[O]=[Bi][O][Bi]=[O]`: inactive: -2.73%; `S=C=Nc1ccc(N=C=S)cc1`: inactive: -21.6%.
As for `Cc1cnc(-n2ncc(C(=O)NCC(C)(C)N3CCOCC3)c2C)nc1-c1cccs1`, the activation is inactive: -8.75%.
In the case of `O=C(O)COc1nn(Cc2ccccc2)c2ccccc12`, the activation is inactive: -18.1%.
Next, `CO[C@]12CC(COC(=O)c3cncc(Br)c3)CN(C)[C@@H]1Cc1cn(C)c3cccc2c13` (some centres not stated): inactive: -9.16%.
To `COc1cccc(Nc2ncc3nc(-c4ccc(Cl)cc4)c(=O)n(C4CC4)c3n2)c1` belongs inactive: -3.95%; to `CN1CCC2(CCN3CCc4c(oc5ccccc45)C3C2)N(C)C1=O` (configuration not stated), inactive: -29.9%.
Regarding `O=c1cc(-c2ccccc2O)oc2cc(O)cc(O)c12`, the activation was inactive: 0.492%.
To `Cc1noc(C)c1-c1nc(NCCN2CCOCC2)c2ccccc2n1` belongs inactive: -7.77%; to `CCCCCCCCCCCCCc1ccco1`, inactive: -15.9%.
Next, `Cc1cnc(-n2ncc(C(=O)N[C@H]3CCCCNC3=O)c2C2CC2)nc1-c1cccs1`: inactive: -5.07%.
To `COc1ccc(OC)c(CN2CCOc3ccc(CN4CCC(O)(c5cccnc5)CC4)cc3C2)c1` belongs inactive: -22.1%; to `Cn1cc(C(=O)OCC2CCN(CCNS(C)(=O)=O)CC2)c2ccccc21`, inactive: -26.7% and inactive: -1.5%; to `CNc1cc(-c2ccccc2C)ncn1`, inactive: -2.51%.
On to `COCCn1c(=O)c(CCc2ccccc2)nc2cnc(Oc3cccc(Cl)c3)nc21`, for which the activation was inactive: -12.4%.
To `COc1cc(C(=O)N2CCOCC2)cc(OC)c1OC` belongs inactive: 1.55% and inactive: 3.93%; to `C=C1C(=O)O[C@H]2[C@H]1CC/C(C)=C\CC[C@@]1(C)O[C@@H]21`, inactive: -12.2%.
Next, `COc1ncc2nc(-c3ccc(F)cc3)c(=O)n(-c3ccccc3)c2n1`: inactive: 1.33%.
Next, `CC(=O)OCC(=O)[C@@]1(O)CC[C@H]2[C@@H]3CCC4=CC(=O)CC[C@]4(C)[C@H]3C(=O)C[C@@]21C`: inactive: 10.9% and inactive: -8.76%; `CC(C)(C)[C@H]1CCC(=O)N(CCSc2ccc(Br)cc2)CC1`: inactive: -6.38%.
In the case of `CC(=O)OCC(=O)[C@@]1(O)CC[C@H]2[C@@H]3CCC4=CC(=O)C=C[C@]4(C)[C@@]3(F)[C@@H](O)C[C@@]21C`, the activation was inactive: -10.3%.
Next, `CO[C@]12C[C@@H](COC(=O)c3cncc(Br)c3)CN(C)[C@@H]1Cc1cn(C)c3cccc2c13`: inactive: -1.59% and inactive: -20.2%.
Turning to `Cc1oc(-c2cccc(NC(=O)c3ccccn3)c2)nc1CNC(=O)C#Cc1ccccc1`, the activation was inactive: 8.73%.
To `O=C(NCC1CCC2(CCN(Cc3cc4ccccc4o3)CC2)O1)c1ccccc1` (configuration not stated) belongs inactive: -14.7%; to `COc1cccc(Nc2ncc3nc(C)c(=O)n(C[C@H]4CCCO4)c3n2)c1`, inactive: -13.4%.
Turning to `COCC1CCCN(Cc2ccc3c(c2)CN(C(=O)c2ccc(-n4cccn4)cc2)CCO3)C1` (configuration not stated), the activation is inactive: -6.56%.
To `Cc1ncc(C[n+]2csc(CCOP(=O)(O)O)c2C)c(N)n1` belongs inactive: -14.4%; to `CNCC[C@H](Oc1ccc(C(F)(F)F)cc1)c1ccccc1`, inactive: -44.1% and inactive: -51.2%; to `N#CCCn1c(=O)c(-c2cc(F)cc(F)c2)nc2cnc(Oc3cccc(Cl)c3)nc21`, inactive: 11.4%.
To `CC(=O)c1ccc(F)c(-c2cc(C)cc3c2OC(CNC(=O)C(C)n2nc(C)cc2C)C3)c1` (configuration not stated) belongs inactive: -21.2%; to `Oc1ccc(O)cc1`, inactive: 12.3% and inactive: -2.34% and inactive: -7.54%.
